This note sets out measurements from the antibiotic and cytotoxicity screens of Wong et al. (2023).

Molecules are shown by their SMILES. This is one part of the list.

In the assay the test system is HSkMC (human skeletal muscle cells). Nature of the assay: cytotoxicity call (relative viability < 0.9). Particulars: 10 µM.
Regarding `C[C@H]1CN([C@@H](C)CO)C(=O)c2cccc(NS(=O)(=O)c3ccccc3)c2O[C@@H]1CN(C)Cc1ccc(Cl)c(Cl)c1`, the cytotoxicity call was “inactive”.
On to `COc1ccc(S(=O)(=O)Nc2ccc3c(c2)C(=O)N([C@@H](C)CO)C[C@@H](C)[C@H](CN(C)C(=O)Nc2ccc(C(F)(F)F)cc2)OCCCC[C@@H](C)O3)cc1`, for which the cytotoxicity call is “inactive”.
Consider `CC1(C)CC[C@]2(C(=O)O[C@@H]3OC[C@@H](O)[C@H](O)[C@H]3O)CC[C@]3(C)C(=CC[C@H]4[C@@]5(C)C[C@@H](O)[C@H](O)[C@@](C)(CO)[C@@H]5[C@H](O)C[C@]43C)[C@@H]2C1`, for which the cytotoxicity call was “inactive”.
The same measure for `NC(=O)NCC#Cc1ccc2c(c1)[C@]1(C(=O)N2)[C@H](C(N)=O)[C@H]2C(=O)O[C@H](c3ccccc3)[C@H](c3ccccc3)N2[C@@H]1c1ccc(OCCO)cc1`: “inactive”.
As for `C[C@H]1CN([C@@H](C)CO)C(=O)c2c(c3ccccc3n2C)-c2ccccc2CO[C@H]1CN(C)C(=O)CCC(F)(F)F`, the cytotoxicity call was “inactive”.
For `CCCC(=O)Nc1ccc2c(c1)C(=O)N(C)C[C@H](OC)[C@@H](C)CN(Cc1ccc(-c3ccccn3)cc1)[C@H](C)CO2`, the cytotoxicity call is “inactive”.
For the compound `C[C@H](CO)N1C[C@H](C)[C@H](CN(C)C(=O)Nc2ccccc2)OCCCC[C@H](C)Oc2ccc(NS(=O)(=O)c3ccc(F)cc3)cc2C1=O`, the cytotoxicity call was “inactive”.
In the case of `COc1ccc([Si](C)(C)[C@@H]2[C@@H](CCO)O[C@]3(C(=O)N(Cc4cccc(N5C(=O)c6cccc7cccc5c67)c4)c4ccccc43)[C@H]2C)cc1`, the cytotoxicity call was “inactive”.
As for `COc1ccc(-c2cn(CCCNC(=O)[C@H](Cc3ccccc3)NS(=O)(=O)c3ccc(C)cc3)nn2)cc1OC`, the cytotoxicity call is “inactive”.
On to `Cc1noc(C)c1S(=O)(=O)N(C)C[C@@H]1Oc2ccc(NS(=O)(=O)c3cn(C)cn3)cc2C(=O)N([C@@H](C)CO)C[C@@H]1C`, for which the cytotoxicity call is “inactive”.
For `NC(=O)[C@H]1Cc2ccccc2N1`, the cytotoxicity call was “inactive”.
On to `C[C@@H]1CCCCO[C@@H](CN(C)Cc2ccc(C(=O)Nc3ccccc3N)cc2)[C@@H](C)CN([C@H](C)CO)C(=O)c2cc(NC(=O)C3CCCCC3)ccc2O1`, for which the cytotoxicity call was “inactive”.
On to `COc1ccc([Si](C)(C)[C@H]2[C@H](CC(=O)N(CCO)Cc3ccccc3)O[C@@]3(C(=O)N(C)c4c(Br)cc(C)cc43)[C@@H]2C)cc1`, for which the cytotoxicity call was “inactive”.
For the compound `COc1ccc(-c2ccc3c(c2)O[C@@H](CN(C)CC2CCOCC2)[C@@H](C)CN([C@H](C)CO)S3(=O)=O)cc1`, the cytotoxicity call is “inactive”.
Turning to `C[C@H](CO)N1C[C@H](C)[C@H](CN(C)Cc2ccc(C(=O)Nc3ccccc3N)cc2)Oc2c(NC(=O)NC3CCCCC3)cccc2C1=O`, the cytotoxicity call is “inactive”.
Turning to `C[C@H](CO)N1C[C@H](C)[C@@H](CN(C)S(=O)(=O)c2ccccc2)Oc2c(NC(=O)C3CCOCC3)cccc2C1=O`, the cytotoxicity call is “inactive”.
The same measure for `CCOC(=O)[C@H]1C/C=C/C[C@H](C(=O)OCC)C(=O)O[C@H]2[C@@H](OC)O[C@H](CO)[C@@H](OC(=O)Nc3cccc(F)c3)[C@@H]2OC1=O`: “active”; for `COc1ccc(NC(=O)Nc2ccc3c(c2)C(=O)N([C@@H](C)CO)C[C@@H](C)[C@@H](CN(C)C(=O)Nc2ccc(C(F)(F)F)cc2)OCCCC[C@@H](C)O3)cc1`: “inactive”.
On to `CCN(CC)[C@H]1CCS(=O)(=O)C1`, for which the cytotoxicity call is “inactive”.
On to `CCO[C@@H]1OC(C(=O)N2CCN(Cc3ccc4c(c3)OCO4)CC2)=C[C@H](c2ccc(C(F)(F)F)cc2)[C@H]1CCCOC(=O)NCCCCCC(=O)NO`, for which the cytotoxicity call is “inactive”.
The same measure for `O=C(O)c1ccc(CCO)s1`: “inactive”.
As for `CO[C@@H]1CN(C)C(=O)c2ccc(NC(=O)C3CCCC3)cc2OC[C@@H](C)N(C(=O)Nc2ccc(C(F)(F)F)cc2)C[C@H]1C`, the cytotoxicity call is “inactive”.
Take `C[C@@H]1CN([C@@H](C)CO)C(=O)c2cc(NC(=O)Cc3ccccc3)ccc2O[C@@H](C)CCCCO[C@H]1CN(C)CC1CCCCC1`: the cytotoxicity call was “inactive”.
The same measure for `CN1C(=O)c2cc(NC(=O)c3ccc(F)cc3)ccc2OC[C@@H]2O[C@H](CC(=O)N3CCOCC3)CC[C@H]21`: “inactive”; for `C/C=N/N(C)C=O`: “inactive”; for `COc1ccc2c3c([nH]c2c1)[C@H](CO)N(CC1CCCCC1)C[C@]13CN(C1)C(=O)Nc1cccc(c1)F`: “inactive”.
Consider `C[C@H]1CCCCO[C@@H](CN(C)Cc2ccccc2)[C@@H](C)CN([C@@H](C)CO)C(=O)c2cc(NC(=O)Nc3ccccc3)ccc2O1`, for which the cytotoxicity call was “inactive”.
On to `C=CCOC(=O)C1=C[C@@H](c2csc3ccccc23)C[C@@H](OCc2ccc(COC(=O)NCCCCCC(=O)NO)cc2)O1`, for which the cytotoxicity call was “inactive”.
Turning to `Cc1ccc(S(=O)(=O)Nc2ccc3c(c2)C(=O)N([C@H](C)CO)C[C@H](C)[C@H](CN(C)CC2CCCCC2)OCCCC[C@H](C)O3)cc1`, the cytotoxicity call is “active”.
For the compound `C=CCN1C(=O)[C@]2(O[C@H](CCO)[C@@H]([Si](C)(C)c3ccc(OC)cc3)[C@@H]2C)c2cc(N3C(=O)c4cccc5cccc3c45)ccc21`, the cytotoxicity call was “active”.
Turning to `Cc1ccc(S(=O)(=O)N(C)C[C@H]2Oc3c(NC(=O)Nc4cccc5ccccc45)cccc3C(=O)N([C@@H](C)CO)C[C@H]2C)cc1`, the cytotoxicity call was “inactive”.
The same measure for `NCc1ccccc1-n1cncn1`: “inactive”.
Consider `COc1ccc(CN(C)C[C@H]2OCCCC[C@H](C)Oc3ccc(NS(=O)(=O)c4ccc(C)cc4)cc3C(=O)N([C@H](C)CO)C[C@H]2C)cc1`, for which the cytotoxicity call is “inactive”.
In the case of `C[C@@H]1CN([C@@H](C)CO)C(=O)c2cc(NC(=O)Nc3ccccc3)ccc2O[C@@H]1CN(C)Cc1ccc(Cl)c(Cl)c1`, the cytotoxicity call was “active”.
With `CO[C@H]1/C=C\C=C(/C)C(=O)NC2=CC(=O)C=C(C2=O)[C@H](OC)[C@@H](C)C[C@H](OC)[C@H](O)[C@@H](C)/C=C(\C)[C@@H]1OC(N)=O`, the cytotoxicity call is “inactive”.
Regarding `COC1C=COC2(C)Oc3c(C)c(O)c4c(O)c(c5c(nc6cc(C)ccn65)c4c3C2=O)NC(=O)C(C)=CC=CC(C)C(O)C(C)C(O)C(C)C(OC(C)=O)C1C` (stereo not given), the cytotoxicity call was “inactive”.
Next, `CO[C@H]1CN(C)C(=O)c2ccc(NS(C)(=O)=O)cc2OC[C@@H](C)N(C(=O)CN(C)C)C[C@@H]1C`: “inactive”.
As to `C[C@H]1CN([C@@H](C)CO)S(=O)(=O)c2ccc(C#CC3(O)CCCC3)cc2O[C@H]1CN(C)C(=O)c1ccccc1`, the cytotoxicity call was “inactive”.
Take `COc1cccc(S(=O)(=O)N2C[C@H](O)COC[C@H]3O[C@@H](CC(=O)N4CCOCC4)CC[C@@H]32)c1`: the cytotoxicity call is “inactive”.
With `C[C@@H]1CN([C@H](C)CO)S(=O)(=O)c2ccc(C3=CCCCC3)cc2O[C@@H]1CN(C)S(=O)(=O)c1cn(C)cn1`, the cytotoxicity call was “inactive”.
